In data set [1] the target is T1, L49A human CXCL8 point mutant (Homo sapiens, UniProt P10145, L76A).
T1 construct: His-SUMO (N, cleaved yes); made in house; host or cells: E. coli
T1 sequence (P10145 28-99 L76A): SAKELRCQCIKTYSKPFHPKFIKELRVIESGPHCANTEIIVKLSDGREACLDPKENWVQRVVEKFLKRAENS
As to the kind of experiment: Biacore binding kinetics, L49A human CXCL8 point mutant. The note with it: 25° C. From the text:
(§1) Several key contacts between the Antibody 1 Fab and wild type human CXCL8 are observed in the crystal structure and are further tested through binding kinetic studies and U937-huCXCR2 fluorescent imaging plate reader (FLIPR) neutralization of human CXCL8 point mutants. To study these key contacts, several point mutants (R6A, I10A, A35P, I40A, and L49A) are made based on the human CXCL8 sequence (SEQ ID NO: 27). Wild type, R6A, I10A, A35P, I40A, and L49A human CXCL8 point mutants are expressed, refolded, and purified according to standard techniques. Formation of disulfide bonds is confirmed by tryptic digest and mass fingerprint analysis, and activity is confirmed by neutrophil chemotaxis assay.
(§2) Binding kinetics are tested on a Biacore 2000 instrument with Biacore 2000 Evaluation Software Version 4.1 as described above.
(§3) The on-rate (kon) and off-rate (koff) for each ligand are evaluated using a “1:1 (mass transfer) Binding” binding model. The affinity (KD) is calculated from the binding kinetics according to the relationship: KD=koff/kon.
In general terms: SPR reads the build-up and loss of mass on a sensor chip optically.

In data set [2] the test system is DSS-induced colitis. As to the kind of experiment: In vivo acute DSS colitis model in mice. The note with it: Day 8, 25 mg/kg subcutaneous Day 0, 2, 4, 8. On the procedure: Dextran sulfate sodium (DSS) is the most commonly used model of Ulcerative Colitis (UC). In this model, DSS is a chemical irritant that is added to drinking water to induce acute disease that resembles UC. The acute phase of DSS colitis is characterized by the recruitment of neutrophils to the mucosa and submucosa, and increased expression of ELR^+ CXC chemokines. However, chronic exposure to DSS causes severe gut damage and significant weight loss, which is not suitable in a colitis model. To accommodate the acute nature of this model, Antibody 1 was used in a prophylactic manner to test its ability to inhibit the recruitment of neutrophils and the development of colitis.
C57BL/6 mice, 8-10 wks old, weighing 18-22 g, are obtained. Blood is collected by cardiac puncture and analyzed to establish a baseline. To induce colitis, mice receive 2.5% DSS (MW=36,000-50,000) in the drinking water for 5 days (Days 1-5) followed by 6 days of no DSS water (reflecting acute inflammation). Control healthy mice receive water only (“no DSS” group). Mice receiving DSS are dosed by subcutaneous injection on Day 0, 2, 4, and 8 with human IgG4 control antibody (25 mg/kg) or Antibody 1 (25 mg/kg). Body weight is recorded daily. The number of mice used for each treatment is 9 (except 5 healthy mice are used in the healthy “no DSS” group.) The study is performed in quadruplicate.

A short description of data set [3]: Physical stability evaluation, % HMW aggregate by analytical SEC. It counts as physicochemical. The note with it: 50 mg/mL; after 1 and 4 weeks at 25° C. From the text: Protein aggregation and self-association is an undesirable property in antibodies as it could potentially exacerbate unwanted effects, such as triggering an immune response. Thus, maintaining the antibody in a monomeric state is highly desirable. Percent high molecular weight (% HMW) aggregate is an indicator of protein aggregation and self-association. A higher % HMW aggregate indicates increased protein aggregation/self-association and increased physical instability. Physical stability of Antibody 1 and Antibody 2 are determined as follows.
Antibody is dialyzed overnight at 4° C. into 10 mM Citrate, pH 6+/−150 mM NaCl. The next morning, the samples are concentrated to 50 mg/mL, filtered through 0.2 micron filters, and then Tween-80 is added to a final concentration of 0.02%. Each sample is incubated at 25° C. for the specified times. Soluble aggregate formation is followed by analytical SEC using a TSK3000SWXL, 5 micron column with dimensions 30 cm×0.78 cm.
The 50 mg/mL formulations are incubated for 1 and 4 weeks at 25° C. to assess longer-term stability under stress conditions. The delta % HMW aggregate is determined by subtracting the % HMW aggregate at time zero (designated as ‘Initial’ in Table 3) from the % HMW at the 1 week or 4 week time point.

For data set [4], the target named is T2, I10A human CXCL8 point mutant (Homo sapiens, UniProt P10145, I37A).
T2 construct: His-SUMO (N, cleaved yes); made in house; host or cells: E. coli
T2 sequence (P10145 28-99 I37A): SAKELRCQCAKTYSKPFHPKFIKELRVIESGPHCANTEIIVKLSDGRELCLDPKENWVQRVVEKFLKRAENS
Briefly: Biacore binding kinetics, I10A human CXCL8 point mutant. The following applies: 25° C.
From the text: as §1, §2, §3

Data set [5] concerns the target T3, I40A human CXCL8 point mutant (Homo sapiens, UniProt P10145, I67A).
T3 construct: His-SUMO (N, cleaved yes); made in house; host or cells: E. coli
T3 sequence (P10145 28-99 I67A): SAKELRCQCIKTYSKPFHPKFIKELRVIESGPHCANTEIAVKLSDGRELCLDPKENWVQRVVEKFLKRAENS
Briefly: Biacore binding kinetics, I40A human CXCL8 point mutant. The note with it: 25° C.
From the text: as §1, §2, §3

For data set [6], the target named is T4, A35P human CXCL8 point mutant (Homo sapiens, UniProt P10145, A62P).
T4 construct: His-SUMO (N, cleaved yes); made in house; host or cells: E. coli
T4 sequence (P10145 28-99 A62P): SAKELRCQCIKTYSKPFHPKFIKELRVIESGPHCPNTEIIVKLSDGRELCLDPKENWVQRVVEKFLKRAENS
Briefly: Biacore binding kinetics, A35P human CXCL8 point mutant. The following applies: 25° C.
From the text: as §1, §2, §3

Data set [7] addresses T5, wild type human CXCL8 (Homo sapiens, UniProt P10145).
T5 construct: made in house; host or cells: E. coli (stated in b60 for the truncated 1-66 wild type)
T5 sequence (P10145 28-99 limits assumed): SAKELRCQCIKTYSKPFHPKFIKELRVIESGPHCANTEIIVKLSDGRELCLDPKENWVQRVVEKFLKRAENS
As to the kind of experiment: Biacore binding kinetics, wild type human CXCL8 (mutational analysis). The note with it: CXCL8 WT; 25° C.
From the text: as §1, §2, §3

B1: Antibody 1: Antibody with heavy chain SEQ ID NO: 1 and light chain SEQ ID NO: 3, expressed in NSO cells (antibody)
heavy: QVQLVQSGAEVKKPGASVKVSCKASGYEFTSYWIHWVRQAPGQGLEWMGNISPNSGSANYNEKFKSRVTMTRDTSTSTVYMELSSLRSEDTAVYYCAREGPYSYYPSREYYGSDLWGQGTLVTVSSASTKGPSVFPLAPCSRSTSESTAALGCLVKDYFPEPVTVSWNSGALTSGVHTFPAVLQSSGLYSLSSVVTVPSSSLGTKTYTCNVDHKPSNTKVDKRV[human IgG4 Fc with S228P (EU numbers) not spelt out]
light: EIVLTQSPATLSLSPGERATLSCRASQSISNNLHWYQQKPGQAPRLLIYYTSRSVSGIPARFSGSGSGTDFTLTISSLEPEDFAVYYCGQNNEWPEVFGGGTKVEIKRTVAAPSVFIFPPSDEQLKSGTASVVCLLNNFYPREAKVQWKVDNALQSGNSQESVTEQDSKDSTYSLSSTLTLSKADYEKHKVYACEVTHQGLSSPVTKSFNRGEC
Turning to B1, the koff in data set [1] was 5.44 ± 0.42 × 10^−4 s^−1; in data set [4] it was 3.44 ± 0.01 × 10^−4 s^−1; in data set [5], 4.24 ± 1.16 × 10^−4 s^−1; in data set [6], 4.97 ± 1.72 × 10^−3 s^−1; in data set [7], 4.41 ± 4.55 × 10^−4 s^−1. For the same molecule, the kon in data set [1] was 1.43 ± 0.24 × 10^5 M^−1 s^−1; in data set [4] it was 2.77 ± 0.39 × 10^5 M^−1 s^−1; in data set [5] it was 1.61 ± 0.21 × 10^4 M^−1 s^−1; in data set [6], 1.06 ± 0.07 × 10^6 M^−1 s^−1; in data set [7], 3.03 ± 3.78 × 10^6 M^−1 s^−1. In addition, the “% of Initial Body Weight” value in data set [2] is listed as 94.0%. In addition, the “delta % HMW” value in data set [3] was “below 1%”.

B2: Antibody 2: Antibody with heavy chain SEQ ID NO: 13 and light chain SEQ ID NO: 15, expressed in NSO cells (antibody)
heavy: QVQLVQSGAEVKKPGASVKVSCKASGYEFTSYWIHWVRQAPGQGLEWMGNISPNSGSANYNEKFKSRVTMTRDTSTSTVYMELSSLRSEDTAVYYCAREGPYSYYPSRQYYGSDLWGQGTLVTVSSASTKGPSVFPLAPCSRSTSESTAALGCLVKDYFPEPVTVSWNSGALTSGVHTFPAVLQSSGLYSLSSVVTVPSSSLGTKTYTCNVDHKPSNTKVDKRV[human IgG4 Fc with S228P (EU numbers) not spelt out]
light: EIVLTQSPATLSLSPGERATLSCRASQSISNNLHWYQQKPGQAPRLLIYYTSRSVSGIPARFSGSGSGTDFTLTISSLEPEDFAVYYCGQNNEWPEVFGGGTKVEIKRTVAAPSVFIFPPSDEQLKSGTASVVCLLNNFYPREAKVQWKVDNALQSGNSQESVTEQDSKDSTYSLSSTLTLSKADYEKHKVYACEVTHQGLSSPVTKSFNRGEC
As to B2, the “delta % HMW” value in data set [3] is listed as “below 1%”.
